Experimental data as given in patent US7771713B2, “Chemical composition that attract arthropods” (priority 1999, dated 2010).
Where “and” joins values, the source holds several entries; their conditions need not be identical. Identical values can stand only once. The name of at least one read-out is uncertain.

Tests used:
[1] = system: Aedes aegypti; assay: Olfactometer attraction test, treatment port vs control port, approximately 75 female mosquitoes; assay type: in vivo
[2] = system: Anopheles albimanus; assay: Olfactometer attraction test of compounds and compositions; assay type: in vivo
[3] = no Base, Activator1 dose 500, 60 mL glass petri dish
[4] = no Base, Activator1 dose 4 B (Black Cap)
[5] = no Base, Activator1 dose 1 B (Black Cap)
[6] = no Base, Activator1 dose 1 I (Insert)
[7] = no Base, Activator1 dose 1 W (White Cap)
[8] = no Base, Activator1 dose 2 B (Black Cap)
[9] = single substance, Crys dish (crystalline solid)

N#CCc1ccccc1 [phenylacetonitrile]
Response Avg % [1, 3]: 16.0%

CC#N [acetonitrile]
Response Avg % [1, 4]: 8.7%
Response Avg % [1, 3]: 27.0%
Response Avg % ([1]; single compound, 1 Black Cap (~400 uL volume), Aedes aegypti attraction): 1.0%
Response Avg % ([1]; single compound, 2 Black Caps (~400 uL volume), Aedes aegypti attraction): 2.3%

CCSCC [diethyl sulfide]
Response Avg % [1, 3]: 15.0%

CC=O [acetaldehyde]
Response Avg % [1, 3]: 8.0%

ClCCl [methylene chloride]
Response Avg % [1, 5]: 36.3%
Response Avg % [1, 6]: 10.1%
Response Avg % [1, 7]: 79.8%
Response Avg % [1, 8]: 46.0%
Response Avg % [1, 4]: 54.3%
Response Avg % [1, 3]: 87.0%
Response Avg % ([1]; no Base, Activator1 dose not given): 58.9%
% caught ([2]; single substance, 1B (1 black cap), listed as MeC12): 64.4% and 63.0%

BrC(Br)Br [bromoform]
Response Avg % [1, 3]: 27.0%

C=CCCCCCCC [1-nonene]
Response Avg % [1, 3]: 6.0%

C[N+](=O)[O-] [Nitromethane]
% caught ([2]; single treatment, 500 μL): 22.1% and 17.3%

NC(N)=S [Thiourea]
% caught [2, 9]: 2.7%

CSSC [dimethyl disulfide]
Response Avg % [1, 5]: 22.4%
Response Avg % [1, 6]: 8.1%
Response Avg % [1, 7]: 46.0%
Response Avg % [1, 4]: 16.3%
Response Avg % [1, 3]: 36.0%

CCC(=O)C(=O)CC [3,4-Hexanedione]
% caught ([2]; single treatment, 500 μL): 10.5% and 1.4%

CCOCC [diethyl ether]
Response Avg % [1, 3]: 25.0%

CCCC(=O)OC [Methyl Butyrate]
Response Avg % [1, 5]: 17.1%
Response Avg % [1, 3]: 26.8%

CC(=O)CCC=C(C)C [6-methyl-5-hepten-2-one]
Response Avg % [1, 3]: 9.0%

O=C(O)CCCC(=O)O [Glutaric Acid]
% caught [2, 9]: 1.3%

O=Cc1ccccc1 [benzaldehyde]
Response Avg % [1, 3]: 9.0%

ClC(Cl)(Cl)Cl [carbon tetrachloride]
Response Avg % [1, 3]: 91.5%

C=CCCCCCC [1-octene]
Response Avg % [1, 3]: 38.0%

Cc1ccccc1 [toluene]
Response Avg % [1, 3]: 7.0%

CC(C)=O [acetone]
Response (%) ([1]; compound alone, high dose of 500 μL): 51% and 48% and 53%
Response Avg % [1, 5]: 27.2%
Response Avg % [1, 6]: 21.4%
Response Avg % [1, 7]: 34.6%
Response Avg % [1, 8]: 26.9%
Response Avg % [1, 4]: 38.3%
Response Avg % [1, 3]: 55.8%
Response Avg % ([1]; single compound, 1 Insert (~225 uL volume), Aedes aegypti attraction): 2.9%
% caught ([2]; single substance, 1B (1 black cap)): 10.7% and 12.2%

C=CC(=C)C [isoprene]
Response Avg % [1, 5]: 11.8%
Response Avg % [1, 8]: 16.1%
Response Avg % [1, 4]: 13.6%
Response Avg % [1, 3]: 12.0%

CCSSCC [diethyl disulfide]
Response Avg % [1, 3]: 33.0%

CCC(C)=O [2-butanone]
Response Avg % [1, 5]: 9.3%
Response Avg % [1, 8]: 32.1%
Response Avg % [1, 4]: 25.9%
Response Avg % [1, 3]: 28.0%

S=C=S [carbon disulfide]
Response Avg % [1, 5]: 21.5%
Response Avg % [1, 8]: 18.4%
Response Avg % [1, 4]: 33.2%
Response Avg % [1, 3]: 82.0%
